From PubChem BioAssay AID1346428 (National Center for Advancing Translational Sciences (NCATS), 2018) come the findings set out here.

SMILES strings stand for the structures. The whole screen tested about 48,000 compounds, of which about 1,200 (2.5%) were called active. Another 2% or so got no clear call; they are omitted.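 Rule for the calls: active = activation of at least 60% and not above a set upper limit (about 1 call in 100 departs from these limits); inconclusive = activation of 40% to 60%, or above that upper limit; inactive = activation under 40%.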 This is one part of the list.

The target in the assay is Probable G-protein coupled receptor 32 (Homo sapiens) (UniProt O75388). The experiment in a line: qHTS for Agonists of Human Resolvin D1 Receptor DRV1. Note: 0% is about no effect. The following applies: CHO-K1 GPR32 beta-arrestin PathHunter luminescence, 90 min; at 76.9 µM; active compounds read high; zero percent set by DMSO-only wells. The procedure, abridged: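 PathHunter beta-arrestin recruitment in CHO-K1 cells stably expressing ProLink-tagged GPR32. Cells were exposed to compound for 90 min at 37 C, then chemiluminescence was read after 1 h detection at ambient temperature; DMSO served as basal control.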
Sequence of UniProt O75388 (O75388 whole entry, looked up): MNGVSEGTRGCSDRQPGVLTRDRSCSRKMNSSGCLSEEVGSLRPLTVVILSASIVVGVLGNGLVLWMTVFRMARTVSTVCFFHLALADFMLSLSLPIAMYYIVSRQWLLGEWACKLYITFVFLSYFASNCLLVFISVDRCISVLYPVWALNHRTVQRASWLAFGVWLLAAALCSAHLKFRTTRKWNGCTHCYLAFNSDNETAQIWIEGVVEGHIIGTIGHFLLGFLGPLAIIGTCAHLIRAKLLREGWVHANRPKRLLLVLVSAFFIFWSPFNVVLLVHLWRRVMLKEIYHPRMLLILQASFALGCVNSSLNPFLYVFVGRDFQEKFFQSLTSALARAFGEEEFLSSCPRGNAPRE
(qHTS replaces the single test concentration by a dilution series.)
With `Cc1cccc(NC(=O)c2oc3ccccc3c2NC(=O)Cc2coc3ccc(C(C)C)cc23)c1`, the activation is inactive: -1.23%.
Next, `O=[N+]([O-])c1cc(-c2nc(-c3ccccc3)no2)ccc1N1CCOCC1`: inactive: 16.9%.
The result for `COc1ccc(-c2nc(CCNC(=O)c3ccc(Br)o3)cs2)cc1` reads inactive: 6.04%; that for `CCOc1ccccc1NC(=O)C1=C(C)Nc2ncnn2C1c1ccc(C)o1` (stereo not given), inactive: 5.43%.
Consider `CCc1ccccc1NC(=O)Cn1c(SCc2ccc(F)cc2)nc2ccncc21`, for which the activation is inactive: -3.24%.
Next, `COc1ccc(-c2nc(CNS(=O)(=O)c3cccc(F)c3)cs2)cc1`: inactive: -22.8%; `O=C(CCCn1c(=O)c2cccn2c2ccccc21)NCc1ccccc1Br`: inactive: -23.7%; `CC1CCN(C(=O)C2COc3ccccc3C2)CC1` (stereo not given): inactive: -21%.
For the compound `Cc1ccc(Nc2sc(C(=O)c3ccccc3)c(N)c2C(N)=O)cc1`, the activation is inactive: -18.5%.
Next, `Cc1ccc(NC(=O)c2ccc(=O)n(Cc3ccccc3C)c2)c(C)c1`: inactive: 22.4%; `CCOC(=O)c1c(S(=O)(=O)N2CCCC(C(=O)NCc3ccccc3OC)C2)c(C)n(C)c1C` (stereo not given): inactive: -6.97%.
Consider `CCc1nc(SC)ncc1C(=O)N1CCN(c2cc(C)ccc2C)CC1`, for which the activation is inactive: 17.5%.
Next, `Cc1ccc(CN2CCCn3nc(C(=O)NCCc4cccc(C)c4)cc3C2=O)cc1`: inactive: 5.38%; `NC(=O)C1CCN(S(=O)(=O)c2ccc(N3CCCCS3(=O)=O)cc2)CC1`: inactive: -11%.
For the compound `[Li+]`, the activation was inactive: 5.53%.
As to `CCc1ccccc1NC(=O)CSc1nc2c(oc3ccccc32)c(=O)n1C`, the activation is inactive: 16.7%.
Next, `Cc1ccc(-c2nc(N3CCCC(C)C3)c3ccccc3n2)cc1` (stereo not given): inactive: 31.7%.
Next, `COc1ccc(CCNCc2ccc3c(c2)n(C)c(=O)n3C)cc1OC`: inactive: 3.45%; `Cc1ccc(CNC(=O)c2ccc3c(O)c(S(=O)(=O)c4ccc(Cl)cc4)c(=O)[nH]c3c2)cc1`: inactive: -10.7%.
For `Cc1nn(C)c2c1c(-c1ccccc1)cc(=O)n2CC(=O)NC(C)C`, the activation is inactive: -14.4%.
Next, `COc1cccc(CNC(=O)C2CCCN(c3nc4ccccc4n4cccc34)C2)c1` (stereo not given): inactive: -15.4%; `Cc1ccc(CN2CCCn3nc(C(=O)NCCc4ccccc4Cl)cc3C2=O)cc1`: inactive: 37.1%.
Next, `CCCn1c2ccc(F)cc2c2nnc(SCCN(CC)CC)nc21`: inactive: -12%.
Next, `Cc1c(C(=O)Nc2ccccc2Cl)oc2ccc(S(=O)(=O)N3CCCCC3)cc12`: inactive: -4.75%.
In the case of `Cc1ccc(C(=O)Nc2cccc(C(=O)OCc3cc(=O)n4nc(C5CC5)sc4n3)c2)cc1`, the activation is inactive: -2.3%.
The result for `COc1ccc(C)cc1NC(=O)c1cc(S(=O)(=O)N2CCN(c3cccc(C)c3C)CC2)ccc1F` reads inactive: 5.48%.
Next, `Clc1ccc(Nc2c(-c3ccccc3Cl)nc3ccc(Cl)cn23)cc1`: inactive: 4.31%; `COc1ccc(-n2nc(C(=O)NCc3ccc(F)cc3Cl)c3c4ccccc4n(C)c3c2=O)cc1Cl`: inactive: 16.8%; `CCOc1ccc(N2CC(NC(=O)C3CC3)CC2=O)cc1` (stereo not given): inactive: -4.68%.
The result for `CCCOc1ccc(C2CC(=O)Nc3c2c(=O)n(C)c(=O)n3C)cc1OC` (stereo not given) reads inactive: -28.8%; that for `COCC(C)Nc1ncnc2c1cnn2-c1ccc(C)c(C)c1` (stereo not given), inactive: 7.14%; that for `CCCCN(CC)CCCNC(=O)Cn1ncc2c3ccccc3n(Cc3ccc(F)cc3)c2c1=O`, inactive: -11.5%.
`CC(NC(=O)c1ccc2c(c1)sc1nc(-c3ccccc3)cn12)C12CC3CC(CC(C3)C1)C2` (stereo not given): the activation is inactive: -4.92%.
As to `Cc1cccc(C(=O)Oc2c(Sc3ccccc3)c(C)nn2C(C)(C)C)c1`, the activation is inactive: -21.1%.
Take `Cn1c(=O)c(=O)n(C)c2cc(S(=O)(=O)N3CCN(c4ccccc4)CC3)ccc21`: the activation is inactive: 0.571%.
The result for `COc1ccc(-n2cc(C(=O)OCc3ccc(Cl)cc3)c3ccccc3c2=O)cc1` reads inactive: -5.04%; that for `CCOc1ccc(Nc2sc(C(=O)c3cccc(OC)c3)c(N)c2S(=O)(=O)c2ccccc2)cc1`, inactive: -4.95%; that for `COc1ccc(NC(=O)C2CCN(S(=O)(=O)c3ccc4c(c3)CCCC(=O)N4)CC2)c(OC)c1`, inactive: -5.99%.
The result for `Cc1c(C(=O)OC2CCCCCC2)[nH]c2c1C(=O)CC(c1ccc(N(C)C)cc1)C2` (stereo not given) reads inactive: -0.597%.
Take `COc1cc(OC)cc(C(=O)Nc2cc(-c3nc4cccnc4s3)ccc2C)c1`: the activation was inactive: -0.0257%.
In the case of `CCC(C(=O)Nc1ccc(C(=O)OC)cc1)n1nc(-c2ccc(C)c(C)c2)ccc1=O` (stereo not given), the activation was inactive: -20.5%.
The result for `CCCn1c(=O)c2[nH]c(-c3ccc(OCC(=O)NCCN)cc3)nc2n(CCC)c1=O` reads inactive: -19.4%; that for `Cc1ccc(NC(=O)CSc2ccc(-c3ccccn3)nn2)cc1F`, inactive: 12.7%; that for `COc1ccc(S(=O)(=O)N(CC(=O)NCCSCc2ccccc2)c2ccc(C)cc2)cc1`, inactive: 21.9%.
In the case of `CCOc1ccc(CNC(=O)Cn2ccc3cc(S(=O)(=O)N4CCCCC4)ccc32)cc1`, the activation was active: 77.4%.
Take `Cn1c(=O)c(=O)n(C)c2cc(S(=O)(=O)N3CCCC3C(=O)Nc3ccc(F)cc3)ccc21` (stereo not given): the activation is inactive: -3.59%.
On to `Cc1ccc(Cn2c(=O)n(-c3cc(C)cc(C)c3)c(=O)c3oc4ccccc4c32)cc1`, for which the activation is inactive: -24.3%.
Next, `O=C(c1ccccc1Br)N1CCC(c2nc3ccccc3o2)CC1`: inactive: -7.27%; `N#Cc1c(C(F)(F)F)cc(-c2cccs2)nc1SCC(=O)Nc1cccc(C(F)(F)F)c1`: inactive: 1.79%.
Turning to `Cc1ccc(S(=O)(=O)/C=C/C#N)cc1`, the activation was inactive: -35.1%.
The result for `COc1ccc(S(=O)(=O)N(Cc2nc(-c3ccc(Cl)cc3)no2)C2CCCCC2)cc1` reads inactive: -20.9%.
Turning to `Cc1ccc(S(=O)(=O)NCc2ccc(C(=O)NCCc3cccc(C)c3)cc2)cc1`, the activation was inactive: 28.8%.
Next, `Cc1oc(C)c2c(=O)cc(-c3ccc4c(c3)OCO4)cc(OC(=O)c3cccc(Cl)c3)c12`: inactive: -11.4%; `O=S(=O)(c1ccc(-n2cnnn2)cc1)N1CCN(c2cccc(C(F)(F)F)c2)CC1`: inactive: 20%.
Next, `COc1ccccc1NC(=O)C(Cc1ccccc1)NS(=O)(=O)c1cccc2nsnc12` (stereo not given): inactive: -12.8%.
For `Cc1ccsc1CN(C(=O)COc1cccc(C)c1C)C1CCS(=O)(=O)C1` (stereo not given), the activation is inactive: -22.5%.
For the compound `COc1cc(Cl)c(C)cc1NC(=O)c1sc2nc(C)cc(C)c2c1N`, the activation is inactive: -2.85%.
With `COc1cc(C(=O)N(Cc2cccnc2)c2nc3cc(C)c(C)cc3s2)cc(OC)c1OC`, the activation is inactive: -19.6%.
On to `CCOC(=O)COc1ccc(F)cc1C(=O)c1ccn2nc(-c3ccc(C)cc3)cc2n1`, for which the activation is inactive: -8.14%.
The result for `CN1C(=O)C(C)(C)c2cc(S(=O)(=O)N3CCCC3C(=O)Nc3ccc(F)cc3)ccc21` (stereo not given) reads inactive: -2.16%; that for `COc1ccc(OC)c(NC(=O)CSc2nc3ccccc3c(=O)n2CCC(=O)NC2CCCCC2)c1`, inactive: 7.75%; that for `O=C(Cn1c(SCC(=O)Nc2ccc(F)cc2)nc2ccccc21)NCc1ccccc1Cl`, active: 70.1%.
Next, `CCCCOC(=O)c1cccc(NC(=O)/C=C/c2ccccc2Cl)c1`: inactive: -27.5%.
Next, `CCCCOc1ccccc1C(=O)N(Cc1cccc(F)c1)C1CCS(=O)(=O)C1` (stereo not given): inactive: -10.3%; `Cc1ccc(NC(=O)c2ccc(CNS(=O)(=O)c3ccc4c(c3)C(C)(C)C(=O)N4C)cc2)cc1F`: inactive: 5.88%; `O=C(NCC(c1cccnc1)N1CCc2ccccc21)c1ccc(F)cc1` (stereo not given): inactive: -29.3%.
Take `CCOc1ccc(NC(=O)N(C)CCc2c(C)nn(C)c2C)cc1`: the activation was inactive: -9.89%.
Next, `CCOC(=O)C1=C(CN(C)Cc2ccccc2)NC(=O)NC1c1ccc(OC)cc1` (stereo not given): inactive: -8.86%; `CCOc1ccc(CCNC(=O)CSc2nnnn2-c2ccc(C)cc2C)cc1OCC`: inactive: 20.2%.
Next, `COc1ccc(OC(C)C(=O)NCc2nc(-c3cccc(C)c3)no2)cc1` (stereo not given): inactive: -4.69%; `COc1cc(OC)c(NC(=O)C(Cc2ccccc2)NS(=O)(=O)c2cccc3nsnc23)cc1Cl` (stereo not given): inactive: -17.8%; `CN(C)c1ccc(NC(=O)CSc2nc3ccsc3c(=O)n2CCCCCC(=O)O)cc1`: inactive: -12.8%.
The result for `Cc1c(C(=O)N(Cc2ccco2)Cc2ccccc2Cl)oc2ccc(F)cc12` reads inactive: 5.73%; that for `COc1ccc(CC(=O)Nc2cc(-c3cn4cccnc4n3)ccc2OC)cc1`, inactive: -12.4%.
Take `CCCCC(=O)NC1(C(F)(F)F)C(=O)Nc2c1c(=O)[nH]c(=O)n2-c1ccc(C)c(C)c1` (stereo not given): the activation is inactive: -2.88%.
Take `O=C(Nc1ccc2nc(SCCOc3ccccc3Cl)sc2c1)c1ccc2c(c1)OCO2`: the activation was inactive: -1.12%.
Next, `CCS(=O)(=O)c1ccccc1C(=O)Nc1ccc(-c2nc3ccccc3s2)cc1`: inactive: -16.1%; `CC(C)CCNC(=O)CN1C(=O)c2cccnc2Sc2ccccc21`: inactive: -16.1%.
Next, `CC(=O)c1cccc(NC(=O)Cc2noc3ccccc23)c1`: inactive: -21.9%; `COc1cccc(NC(=O)CSC2=Nc3ccccc3C3=NC(CC(=O)NCc4ccc5c(c4)OCO5)C(=O)N23)c1` (stereo not given): inactive: 23.5%; `Cc1cc(C)c(NC(=O)C(=O)NCC(c2cccnc2)N2CCN(Cc3ccccc3)CC2)c(C)c1` (stereo not given): inactive: -10.4%.
The result for `Cc1ccccc1-c1noc(-c2ccc(N3CCN(C)CC3)c([N+](=O)[O-])c2)n1` reads inactive: -9.06%; that for `CCCCNC(=O)c1cnc2sc(N3CCCCCC3)nn2c1=O`, inactive: -6.96%; that for `COc1ccc(C)cc1NC(=O)Nc1ccccc1OCc1cc(=O)n2ccccc2n1`, inactive: -15%.
For the compound `CSc1nn(Cc2cccc(Cl)c2)c(N(C(C)=O)C(C)=O)c1S(=O)(=O)c1ccccc1`, the activation was active: 76.1%.
